# Results reported in the supplement of paper PMC3334620.
# In all, about 33,000 sequences were measured (“E-score (-0.5 to 0.5)”: median about -0.035, highest 2% from about 0.35 on). Some of the results follow.
# Target: T1, Pdr3 (UniProt P33200)
# T1 sequence: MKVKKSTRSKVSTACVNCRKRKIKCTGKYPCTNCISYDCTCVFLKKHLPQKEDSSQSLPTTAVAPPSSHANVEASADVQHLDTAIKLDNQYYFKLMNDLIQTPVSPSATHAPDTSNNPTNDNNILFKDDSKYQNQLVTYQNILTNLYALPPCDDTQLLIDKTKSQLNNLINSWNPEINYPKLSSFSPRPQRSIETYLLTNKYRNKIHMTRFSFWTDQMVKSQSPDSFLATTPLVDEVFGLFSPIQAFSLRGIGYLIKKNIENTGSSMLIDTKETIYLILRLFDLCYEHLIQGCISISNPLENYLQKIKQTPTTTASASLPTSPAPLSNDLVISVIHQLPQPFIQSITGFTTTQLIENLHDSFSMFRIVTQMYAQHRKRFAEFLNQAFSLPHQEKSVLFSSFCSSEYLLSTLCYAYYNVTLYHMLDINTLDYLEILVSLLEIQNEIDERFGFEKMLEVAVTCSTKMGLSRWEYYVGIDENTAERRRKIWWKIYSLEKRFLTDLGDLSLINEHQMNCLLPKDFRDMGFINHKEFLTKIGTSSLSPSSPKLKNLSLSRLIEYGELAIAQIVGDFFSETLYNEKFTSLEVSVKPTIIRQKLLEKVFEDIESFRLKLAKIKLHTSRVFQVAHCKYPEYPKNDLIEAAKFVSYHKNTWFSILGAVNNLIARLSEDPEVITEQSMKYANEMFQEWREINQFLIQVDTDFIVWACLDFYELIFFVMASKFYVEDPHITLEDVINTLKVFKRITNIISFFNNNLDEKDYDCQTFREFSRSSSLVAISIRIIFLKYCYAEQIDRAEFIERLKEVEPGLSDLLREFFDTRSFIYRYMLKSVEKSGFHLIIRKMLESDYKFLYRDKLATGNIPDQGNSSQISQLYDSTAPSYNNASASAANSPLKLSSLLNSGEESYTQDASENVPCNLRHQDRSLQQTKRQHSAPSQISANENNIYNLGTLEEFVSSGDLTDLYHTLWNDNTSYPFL
# Assay: PBM E-score (8-mer binding enrichment) (E-score (-0.5 to 0.5)); higher = stronger / more preferred TF binding; most listed sequences are background and not binding sites
# Settings: protein concentration: 200 nM; construct: GST-full length
# Description: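 Universal 'all 10-mer' protein binding microarrays (Agilent AMADID 015681) probed with GST-tagged S. cerevisiae TFs (full-length or DBD) made by in vitro transcription/translation (PURExpress), about 100-200 nM. Bound TF was detected with fluorescent anti-GST. Each ungapped 8-mer (which stands for itself and its reverse complement) is scored by the PBM enrichment score (E-score), a modified Wilcoxon-Mann-Whitney statistic from -0.5 to +0.5, computed with the Universal PBM Analysis Suite. Scale: above 0.35 generally sequence-specific binding.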
row,Sequence,PBM E-score
1,GCCATGAA,-0.0141
2,CATACGCG,0.152
3,ATGCGGCC,0.107
4,GTCAGACA,0.0194
5,ATACCAAC,0.0867
6,AATTGCTG,0.172
7,ACACGGCT,0.168
8,GATCGTTA,0.0207
9,CCAGGCGA,-0.138
10,ATCAGCTG,0.0392
11,CTTCCGAA,0.385
12,TCCTAAAA,-0.212
13,CACCAGAA,-0.258
14,AGGACACA,0.0706
15,GATGACGA,-0.0975
16,CGGCCACC,0.242
17,TAACCCCA,-0.052
18,GCATCGAC,0.0146
19,CCAATGAC,-0.284
20,GATCGCCA,0.0799
21,TGTCGGAA,0.383
22,CATCCATG,-0.064
23,GACCGGAA,0.401
24,GGGAAACA,0.161
25,CCGAACGA,0.238

row,Sequence,PBM E-score
1,AGCCCGCG,0.381
2,AATGTATG,-0.00059
3,ATTTTTTA,0.107
4,CCAGCCCA,-0.254
5,CCTGAGGC,-0.149
6,CAAACGAC,0.0429
7,AAAGCGTG,0.00059
8,AGGGCGAA,0.0169
9,CTTCGACA,-0.179
10,AGAACGAT,-0.0763
11,ACTAGTAG,-0.221
12,ATGCGCAC,0.081
13,CACTCTTA,-0.131
14,GACACCTC,0.0864
15,GCCCGGGC,0.427
16,GCGTGTCA,0.0968
17,ACTCCAGA,-0.136
18,CTTGAAAC,0.0515
19,ACCCGTCT,0.105
20,ACGGAGAG,0.319
21,TCCTCACA,-0.132
22,TACTAAAA,-0.0309
23,GAGAGTGA,-0.0729
24,AAATGTCA,-0.16
25,CGGAATAC,0.427

row,Sequence,PBM E-score
1,ACACTCTA,-0.0123
2,ATCGTACA,-0.104
3,AGGTCTCA,-0.151
4,CATCCTAG,-0.218
5,AGGAAGAG,-0.0084
6,ATTAAGGG,-0.104
7,GACACCGC,0.135
8,CCGCAGAC,0.173
9,CGTTTTTC,-0.00464
10,ATAAGTAC,-0.0877
11,ACAGAGGC,-0.188
12,CCAAGGCG,0.0196
13,AATTAGGA,-0.00973
14,AATTTTTA,-0.0903
15,AACACCCG,0.307
16,ACACCGCA,0.12
17,CCCGCAAG,-0.0789
18,TGAGTGCA,-0.0591
19,AAGAAGGA,-0.099
20,GAGTCAAC,-0.184
21,AAGGATAT,-0.028
22,GCAATTGA,0.0254
23,TCATCCAA,-0.0071
24,AATGAACT,0.177
25,CTGTTAGC,-0.0553

row,Sequence,PBM E-score
1,GCGGGAGA,0.159
2,CGTGTTTA,0.00463
3,CGCGGACA,0.361
4,CGCTTTAC,-0.0323
5,AACGGGGA,0.164
6,GCCAAGGA,-0.194
7,GCCTGCGA,-0.228
8,CAATCACC,-0.0703
9,AAGATGAC,-0.202
10,AGATTGAG,-0.0419
11,GGAAGTGA,0.217
12,CGCGCGCC,0.241
13,CAAAACGC,0.13
14,ACTAAATC,0.144
15,CAGTATAG,0.0503
16,AAAGATGA,-0.16
17,CACACGGC,0.0275
18,GGACCTAC,0.0517
19,CACAGAGG,-0.0837
20,ACACTTCG,-0.13
21,CCTGGCCG,0.136
22,AAATTTCT,-0.0903
23,CCTATGCA,-0.16
24,CTCGTGAC,-0.0864
25,ACGACCAA,-0.178

row,Sequence,PBM E-score
1,AATTTAAA,0.0569
2,GCTTGGAA,-0.0548
3,AGGTAATG,0.0131
4,AGAGGCAA,-0.153
5,GAGCAATC,0.107
6,GGAGGCCA,0.0283
7,ACCTTCTA,-0.212
8,GCCCCATA,-0.0286
9,ACACGTAC,-0.201
10,CAACGGTC,0.0475
11,AGAGGCGA,-0.293
12,CACCTACC,-0.163
13,CAGAAAAA,-0.142
14,AGCGGGGA,0.0517
15,CGGGTTTA,0.327
16,ACACCGCT,-0.166
17,CATTCTAG,-0.32
18,ATCTCGAG,0.0184
19,GGGCTAAA,0.0946
20,GCTAGGAA,-0.0867
21,CCTACGCG,0.0621
22,AGTGCTCG,-0.148
23,CCAACAGA,-0.199
24,GACCAGTA,0.0204
25,CCAACTTC,-0.128

row,Sequence,PBM E-score
1,ACCCCCAG,-0.227
2,GTGAATTA,-0.0214
3,GCTTCCGA,0.405
4,CTCTGTAA,-0.257
5,ATATGGTG,0.0907
6,CGTTGAAC,-0.0169
7,GGGTGGTA,0.127
8,AGCGATAA,-0.0442
9,ACAGGCCT,-0.13
10,CGTAACAC,-0.0629
11,CTTAGAGC,-0.129
12,AGCTTCCA,0.0336
13,ACAGAGGT,-0.166
14,CGTGCTAC,-0.0992
15,ACCTGGTC,0.0867
16,CAAGTAAA,-0.0515
17,CGTTGTTC,0.132
18,CTGGTAGA,-0.0687
19,CCACACGC,0.0821
20,GACCACGC,-0.0943
21,TCTCGCCA,-0.102
22,ATCTGCCG,0.306
23,CGGGGTAA,0.267
24,CCATCCAA,-0.105
25,CATTCGGA,0.356

row,Sequence,PBM E-score
1,ACAATTTC,-0.157
2,AACTAACA,0.0413
3,AATATCCG,0.323
4,GTCAGTAA,-0.145
5,ACCGGAAG,0.42
6,AGAGCTAT,-0.194
7,CCTACTGC,-0.132
8,CATCCCTA,-0.0904
9,GTCTACAC,-0.0206
10,CCCTATCA,-0.143
11,ACAATTGT,0.0284
12,ACCTATGA,-0.24
13,AGTAACCA,-0.0464
14,AACCACTC,0.0319
15,CGAGCGAC,-0.113
16,AAGCATCT,-0.243
17,AACATCCC,0.292
18,GGGACGCA,-0.0927
19,AAGTAGGG,-0.0838
20,CAACCTAC,-0.0442
21,AACTTTTC,-0.124
22,AGGGCCGG,0.212
